Results reported in PubChem BioAssay AID686971 (National Center for Advancing Translational Sciences (NCATS), 2013).
The whole screen tested about 360,000 compounds, of which about 7,500 (2.1%) were called active. Inconclusive results, whose numbers are uncertain, are shown with a selection of clear calls. Calls follow the shape of the dose curve; as a rule, active = well fitted cell-killing curve with a large enough effect; inconclusive = small, poorly fitted or top-dose-only effect, or effect the other way, or another doubt; inactive = no such curve, though single readings can be large or run the other way. No potency is given beside an inconclusive call; the fits are too rough.

test: qHTS for induction of synthetic lethality in tumor cells producing 2HG: qHTS for the HT-1080-IDH1KD cell line; details: HT-1080 IDH1 knockdown viability, ATP luminescence, 48 h; activity, negative = toxicity: at 46.1 µM (top of the series) unless noted;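 as to activity, negative = toxicity: 0% = DMSO wells and -100% = cell-free medium wells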
Procedure, shortened: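 In this qHTS, HT-1080 cells depleted of IDH1 are exposed for 48 h at 37 °C to compound titrations. Toxicity is scored from CellTiter-Glo luminescence, with DMSO as full viability and medium alone as none.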
Potency is read from the fitted curve at half-maximal effect; tags tell the direction and shape of the fitted curve.

SMILES | activity, negative = toxicity | Potency
Cc1ccc(C)c(Nc2cc(C(=O)NCc3cccnc3)c3ccccc3n2)c1 | inactive: -23.5% | 
CN(C(=O)c1cc2n(n1)C(C(F)(F)F)CC(c1ccco1)N2)c1ccc(OC(F)(F)F)cc1 (stereo not given) | inactive: -1.06% | 
CCC(C(=O)N1CCN(c2ccccc2OC)CC1)c1ccccc1 (stereo not given) |  | inconclusive [cytotoxic, single point]
COc1cc(C(=O)Nc2ccc3c(c2)nc(C)n3C)cc(OC)c1OC |  | active: 9.2 µM
Cc1cc(Sc2ncnc(N)c2[N+](=O)[O-])ncn1 |  | active: 7.31 µM
NC(=O)[C@H]1CC2(CC(c3cccc(NC(=O)COc4ccc(Cl)cc4)c3)=NO2)CN1C(=O)C(c1ccccc1)c1ccccc1 (stereo not given in full) | inconclusive: -30.5% [cytotoxic] | 
COc1ccc(COC(=O)C2CCN(C(=O)c3ccc(Cl)cc3)CC2)cc1F | inactive: -8% | 
COc1cccc(/C=C2/SC(=S)N(CCC(=O)N3CCOCC3)C2=O)c1 | inconclusive: -15.2% [cytotoxic] | 
COc1ccc(C(=O)NCc2cccc(Cl)c2)cc1S(=O)(=O)N1CCOCC1 | inactive: 2.71% | 
CCCCCCCCNc1ncnc2ccccc12 |  | inconclusive [cytotoxic, partial curve, poor fit]
O=C(CN1C(=O)S/C(=C\c2ccc(O)cc2)C1=O)c1ccccc1 |  | inconclusive [cytotoxic, partial curve]
COc1ccc2c(c1)c(=Cc1ccc(N(C)C)cc1)c1cc(-c3ccccc3)[n+](C)n12 |  | active: 5.17 µM
COc1ccc(-c2oc3cc(O)c(OC)c(O)c3c(=O)c2OC)cc1O |  | active: 0.58 µM
O=c1[nH]c(SCc2ccc([N+](=O)[O-])cc2)nc2[nH]ncc12 |  | inconclusive [cytotoxic, partial curve]
Cc1cccn2c(NC(=O)c3cccs3)c(-c3ccccc3)nc12 | inactive: 1.29% | 
COc1ccc(C(C#N)=C2C=CC(=NO)c3ccccc32)cc1 |  | active: 0.517 µM
CCOC(=O)c1cnc(-n2nc(C)cc2C)nc1NNc1ncc(-c2ccccc2)cn1 |  | inconclusive [cytotoxic, partial curve, poor fit]
COc1ccc(Cc2noc(CN3CCN(C4CCc5ccccc5C4)CC3)n2)cc1OC (stereo not given) |  | inconclusive [cytotoxic, single point]
COc1cc(CNc2ccc(N3CCN(C(C)=O)CC3)cc2)ccc1OCc1ccc(F)cc1 |  | inconclusive [cytotoxic, partial curve]
CCOC(=O)[C@H]1[C@H]2COc3ccc(Cl)cc3[C@@H]2N2C(=O)CN(CC3CCCO3)C(=O)[C@@]12C (stereo not given in full) | inactive: 20.3% | 
